# Test results reported in PubChem BioAssay AID588855 (National Center for Advancing Translational Sciences (NCATS), 2011).
# About 5,000 (1.2%) of roughly 410,000 compounds were called active. Inconclusive results, whose numbers are uncertain, are shown with a selection of clear calls. Calls follow the shape of the dose curve; as a rule, active = well fitted inhibition curve with a large enough effect; inconclusive = small, poorly fitted or top-dose-only effect; inactive = no such curve, though single readings can be large or run the other way. Where the call is inconclusive, the potency comes from a doubtful curve fit.
# Assay: qHTS for Inhibitors of TGF-b; also: nearly all actives have a fitted effect of over 65% in size
# Details: HepG2 CAGA-GFP TGF-b/SMAD3 reporter, GFP fluorescence, 18 h, TGF-beta stimulated, 500 pg/mL final; series mostly up to 46.1 µM; activity, negative = inhibition: at the top concentration
# How it was run: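 Inhibition was scored as loss of TGF-beta-induced (500 pg/mL final, 18 hours, 37 degrees C) GFP in HEPG2 cells carrying a CAGA-GFP reporter, in DMEM with 1% FBS. Well GFP was summed per cell; Activity was normalised to unstimulated and stimulated DMSO wells, then concentration-response fitting.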
# % is scaled to controls: 0 for no effect and ±100 for the full control effect; potency is read from the fitted curve at half-maximal effect; tags tell the direction and shape of the fitted curve.
Structure (SMILES),"activity, negative = inhibition",Potency
C#CCOc1ccc(OC)cc1C(c1c(C)[nH][nH]c1=O)c1c(C)[nH][nH]c1=O,inactive: -1.24%,
O=C(Nc1ccc(N2CCN(Cc3ccccc3F)CC2)cc1)c1ccccc1[N+](=O)[O-],,"inconclusive: 12.6 µM [inhibitor, single point]"
CCOC(=O)/C(=N\Nc1cccc(Cl)c1)Sc1nnc(-c2ccc(OC)cc2)n1C,,"inconclusive: 6.31 µM [inhibitor, single point]"
C/C(=N\NC(=S)NC(C)C)c1ccc(Cl)s1,,"inconclusive: 7.08 µM [inhibitor, partial curve]"
Cc1c(Cl)cccc1NC(=O)Nc1ccc2snnc2c1,,"inconclusive: 25.1 µM [inhibitor, single point]"
O=C(Nc1cccc(OC(F)(F)F)c1)c1ccc(-c2cccnc2)c2ccoc12,,"inconclusive: 35.5 µM [inhibitor, single point]"
CCn1c(=S)sc2c(=O)n(-c3ccccc3)c(SC)nc21,,"inconclusive: 35.5 µM [inhibitor, single point]"
O=C(NCCc1ccccc1)c1ccc(CS(=O)(=O)c2ccc(Cl)cc2)o1,,"inconclusive: 17.8 µM [inhibitor, partial curve]"
CC1CC(C)(C)n2c(O)c(N=NC(N)=S)c3cccc1c32 (stereo unspecified),,"inconclusive: 35.5 µM [inhibitor, single point]"
COC(=O)c1ccc(NC(=O)CN(Cc2ccccc2)S(=O)(=O)c2ccc(Cl)cc2)cc1,,active: 17.8 µM
Cc1ccc(S(=O)(=O)N2[C@@H](c3ccccc3F)C(C(=O)O)=CC[C@H]2c2cccc(Cl)c2)cc1,,"inconclusive: 10 µM [inhibitor, partial curve]"
COc1cc2oc3ccc(C#Cc4ccccn4)cc3c(=O)c2cc1OC,inactive: -12.4%,
COC(=O)c1ccc(CNC(=O)c2ccc(S(=O)(=O)N(C)c3ccccc3OC)cc2)cc1,,"inconclusive: 35.5 µM [inhibitor, single point]"
COc1ccc(C2NC(=O)NC(C)=C2[N+](=O)[O-])cc1 (stereo unspecified),inactive: 1.25%,
COc1cc2ccccc2cc1C(=O)Nc1ccc(S(=O)(=O)Nc2cc(C)on2)cc1,,"inconclusive: 6.31 µM [inhibitor, single point]"
COc1ccc(C=C(C(=O)c2ccccc2)C(=O)c2ccccc2)cc1,,"inconclusive: 22.4 µM [inhibitor, single point]"
Cc1ccc(CCNC(=O)CCn2nc(-c3ccc(C)cc3)ccc2=O)cc1,inactive: -12.7%,
C=CCS/C(=N\n1cnc2ccccc2c1=O)N(CC)CC,inactive: -2.38%,
COC(=O)c1ccc2c(=O)n(CCCCCC(=O)N3CCN(c4ccc(Cl)cc4)CC3)c(=O)[nH]c2c1,,"inconclusive: 35.5 µM [inhibitor, single point]"
COc1cc(OC)c2c(-c3cccc(-c4ccc(OC(F)(F)F)cc4)c3)cc(=O)oc2c1,,"inconclusive: 12.6 µM [inhibitor, partial curve]"
COc1ccc(NS(=O)(=O)c2ccc(S(=O)(=O)N3CCCC3)cc2)cc1Cl,inactive: -12.8%,
Cc1ccc(C(=O)O)cc1NC(=O)C1CCN(S(=O)(=O)c2ccc3c(c2)OCCO3)CC1,inactive: -2.73%,

Structure (SMILES),"activity, negative = inhibition",Potency
Cc1cnn(CCC(=O)NNC(=S)Nc2ccccc2)c1,,"inconclusive: 4.47 µM [inhibitor, partial curve, poor fit]"
CC(C)c1ccc[n+](-c2nc([O-])sc2C=O)c1,,"inconclusive: 35.5 µM [inhibitor, single point]"
N#Cc1ccc(C(=O)CSc2nnc(-c3ccc(C(F)(F)F)cn3)s2)cc1,,"inconclusive: 2.51 µM [inhibitor, single point]"
CCOC(=O)c1ccc(NC(=S)N2CCN(CCN=CC3=C(O)CC(C)(C)CC3=O)CC2)cc1,inactive: -4.57%,
CCc1c(CN2CCN(c3ccccc3F)CC2)csc1C,inactive: -30%,
CCn1c(SCC(=O)c2ccccc2)nnc1-c1cccc(Cl)c1,,"inconclusive: 6.31 µM [inhibitor, single point]"
COc1ccc(C)cc1NC(=O)NNC(=O)C1CCC(C(C)(C)C)CC1 (stereo unspecified),,"inconclusive: 25.1 µM [inhibitor, single point]"
Cc1ccc(/C=C/c2onc(C)c2S(=O)(=O)N2CCC(C(=O)NCc3ccc(OC(C)C)cc3)CC2)cc1,inactive: -12.3%,
CCn1c(SCC(=O)N2CCOCC2)nc2c(c1=O)SC(C)C2 (stereo unspecified),,"inconclusive: 6.31 µM [inhibitor, single point]"
CCCCn1c(-c2cccc(C)c2)nc2cc3[nH]c(=O)c(C(C)C)nc3cc21,,"inconclusive: 35.5 µM [inhibitor, single point]"
Cc1cc(C)cc(C(=O)NCC(=O)N2CCC(C(N)=O)CC2)c1,inactive: 5.54%,
CCOc1ccc(S(=O)(=O)NCCC(=O)OC(C)C(=O)N2CCc3ccccc32)cc1 (stereo unspecified),,"inconclusive: 0.631 µM [inhibitor, partial curve, poor fit]"
CCn1c(=O)n(CC)c2cc(N3CCCC3)c(NC(=O)c3ccc(OC)c(Br)c3)cc21,inactive: 11.6%,
Cc1ccc(S(=O)(=O)N(CCO)c2cc3c(s2)CCCC3)cc1,,"inconclusive: 7.94 µM [inhibitor, partial curve]"
O=C(CC1(O)C(=O)N(Cc2ccc3c(c2)OCO3)c2ccccc21)c1ccccc1 (stereo unspecified),inactive: -13.6%,
Cc1ccccc1CN1CCNC(=O)C1CC(=O)NC1CCCCCCC1 (stereo unspecified),inactive: 0%,
Cc1cc(C)cc(Oc2cc(NC(=O)c3cn(C)nc3C)cc([N+](=O)[O-])c2)c1,,"inconclusive: 35.5 µM [inhibitor, single point]"
Cc1ccc(OCC(=O)N2CCN(c3nnc(-c4ccc(C)cc4)c4ccccc34)CC2)cc1,,"inconclusive: 15.8 µM [inhibitor, single point]"
O=C(Nc1cc(Cl)cc2c1-c1ccc(Cl)cc1C2O)C(Cl)Cl (stereo unspecified),,"inconclusive: 35.5 µM [inhibitor, single point]"
Cc1cc(C)cc(-n2nnn(C3C/C(=N/NC(N)=S)C4OCC3O4)c2=S)c1 (stereo unspecified),,"inconclusive: 17.8 µM [inhibitor, single point]"
CC(=O)OC[C@@H]1CN(Cc2ccccc2)C[C@H](n2cnc3c(NC4CCCC4)ncnc32)O1,inactive: 19.3%,
Cc1ccc(C)c(N2CCN(C(=O)CS(=O)(=O)c3cccc4nsnc34)CC2)c1,inactive: -18.5%,

Structure (SMILES),"activity, negative = inhibition",Potency
O=c1cc(NS(=O)(=O)c2ccccc2)nc(SCc2ccc(Cl)cc2)[nH]1,,active: 3.98 µM
CCOC(=O)C1=C[C@@H](C(C)(C)C)N(S(=O)(=O)c2ccc(OC)cc2)[C@H]1c1ccccc1,,active: 11.2 µM
COCc1c(C(=O)Nc2ccc(C)c(S(=O)(=O)N3CCOCC3)c2)oc2ccccc12,,"inconclusive: 35.5 µM [inhibitor, single point]"
O=C(CN1C(=O)CC(c2ccco2)Sc2ccccc21)Nc1ccc2c(c1)OCCO2 (stereo unspecified),,"inconclusive: 31.6 µM [inhibitor, partial curve, poor fit]"
O=c1c2ccccc2nnn1CSc1ccccc1F,,"inconclusive: 22.4 µM [inhibitor, single point]"
CC(C)C[C@H](NC(=O)OC(C)(C)C)C(=O)N/N=C/C1=Cc2ccccc2OC1C (stereo partly specified),,"inconclusive: 22.4 µM [inhibitor, single point]"
CN1C(=O)C(O)(C2COC(C)(C)CC2=O)c2cc(Br)ccc21 (stereo unspecified),,"inconclusive: 35.5 µM [inhibitor, single point]"
O=C(CN1C(=O)CCc2cc(S(=O)(=O)N3CCCCC3)ccc21)NCc1ccc(Cl)cc1,,"inconclusive: 20 µM [inhibitor, partial curve, poor fit]"
Cc1cccc2sc(N(Cc3cccnc3)C(=O)C3COc4ccccc4O3)nc12 (stereo unspecified),inactive: -23.2%,
CN(C)CCCNc1ncnc2c1c(-c1ccccc1)cn2-c1ccccc1,,"inconclusive: 5.62 µM [inhibitor, single point]"
COc1cc(C(C(=O)NC2CCCCC2)N(C(=O)Cc2c[nH]c3ccccc23)c2ccccc2C)cc(OC)c1OC (stereo unspecified),,"inconclusive: 31.6 µM [inhibitor, single point]"
CCOc1cccc(CNc2ccc(O)cc2)c1OCc1ccc(Cl)cc1,,"inconclusive: 17.8 µM [inhibitor, single point]"
CC(C)(C)NC(=O)CSc1ncnc2c1nnn2Cc1ccccc1Cl,,"inconclusive: 22.4 µM [inhibitor, single point]"
C/C(=N\NC(=O)c1cccc2ccccc12)c1cccs1,inactive: 0.126%,
COc1ccc(CC(=O)NC2CC(=O)N(c3ccc(C)c(C)c3)C2)cc1OC (stereo unspecified),inactive: -1.43%,
CC(=O)NN=C(C)c1ccc(NC(=O)C2CC2)cc1,,"inconclusive: 0.562 µM [inhibitor, full curve]"
COC(=O)[C@H]1C[C@H](OC(=O)Nc2c(C)noc2C)[C@@]2(O)CN(S(=O)(=O)c3ccc(C)cc3)CC2[C@H]1C(=O)OC (stereo partly specified),inactive: 2.67%,
COc1cc(-c2c(C#N)c(N)nc(SCc3ccncc3)c2C#N)cc(OC)c1OC,,"inconclusive: 10 µM [inhibitor, partial curve]"
CCN(Cc1ccccc1)C(=O)Cn1ncc2c(=O)oc3ccc(C)cc3c21,,"inconclusive: 35.5 µM [inhibitor, single point]"
COc1ccc(C2/C=C\CN(C(=O)OCC3c4ccccc4-c4ccccc43)CC(=O)N2Cc2cccc(F)c2)cc1 (stereo unspecified),,"inconclusive: 2.82 µM [inhibitor, partial curve, poor fit]"
Oc1ccc2ccccc2c1/C=C/c1ccc2c(Br)cc(Br)c(O)c2n1,,"inconclusive: 22.4 µM [inhibitor, partial curve, poor fit]"
CCCCCn1c(CN2CCN(CCO)CC2)nc2c1c(=O)n(C)c(=O)n2C,inactive: -7.66%,
